Measured values published in the supplement of paper PMC4723716.
± gives the uncertainty stated by the source. The full ranking holds about 9,900 compounds; the median of “viability index relative to DMSO control” is about 1, and the lowest 2% start at about 0.85. The list shows a part of the results.

test system: Plasmodium falciparum NF54 stage V gametocytes; assay: viability index relative to DMSO control (fraction); higher = less gametocyte killing; details: 2.5 µM, library set: Broad Institute DOS, incubation time: 72 h
Outline: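 In 1,536-well plates, 10 µl of serum-free medium holding P. falciparum NF54 stage V gametocytes (0.75% gametocytemia, 1.25% hematocrit) received compound at 2.5 µM for 72 hr at 37°C in low oxygen. After one to two hours with 3 µl of 2.5 µM MitoTracker Red CMXRos containing 0.13% saponin, red particles of 20–70 µm2 were counted in a single field per well. Viability index is reported as the particle count over the plate mean of wells treated with solvent only.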

Row | Compound | viability index
1 | COc1cccc(-c2ccc3n(c2=O)C[C@@H]2[C@@H](CO)[C@H](C(=O)N(C)C)[C@H]3N2C(=O)c2ccccn2)c1 | 1.04 ± 0.017
2 | O=C(C[C@@H]1CC[C@H]2[C@@H](COC[C@H](O)CN2C(=O)c2cnccn2)O1)N1CCN(c2ccccc2)CC1 | 1.1 ± 0.064
3 | O=C(Nc1ccccc1F)N1CC(=O)N2[C@H](CO)[C@@H](c3ccc(-c4cccnc4)cc3)[C@@H]2C1 | 1.08 ± 0.04
4 | Cc1ccc(S(=O)(=O)N2[C@@H]3CNC[C@H]2[C@@H]3c2ccc(/C=C/c3ccccc3)cc2)cc1 | 0.965 ± 0.038
5 | C[C@@H]1CCCCO[C@H](CN(C)C(=O)Cc2ccccc2)[C@@H](C)CN([C@@H](C)CO)C(=O)c2cc(NS(C)(=O)=O)ccc2O1 | 1.08 ± 0.026
6 | COc1ccc(S(=O)(=O)Nc2ccc3c(c2)C(=O)N([C@@H](C)CO)C[C@@H](C)[C@@H](CN(C)Cc2ccc(C(F)(F)F)cc2)OCCCC[C@@H](C)O3)cc1 | 0.987 ± 0.0063
7 | O=C(NC[C@H]1N[C@@H](CO)[C@H]1c1ccc(-c2ccccc2F)cc1)c1ccccn1 | 1.02 ± 0.058
8 | O=C(NC[C@H]1N[C@H](CO)[C@H]1c1ccccc1)c1ccccc1F | 1.08 ± 0.025
9 | C/C=C/c1ccc2c(c1)O[C@H](CN(C)C(=O)Nc1ccc(OC)cc1)[C@H](C)CN([C@H](C)CO)S2(=O)=O | 1.056 ± 0.0059
10 | COc1ccc2c3c([C@H](CO)N(C[C@]33CCN(Cc4ccncc4)CC3)C(=O)CN3CCOCC3)n(C)c2c1 | 0.909 ± 0.014
11 | O=C(C[C@@H]1CC[C@@H]2[C@H](COC[C@@H](O)CN2C(=O)Nc2cc(Cl)cc(Cl)c2)O1)N1CCOCC1 | 1.09 ± 0.095
12 | COC(=O)C[C@@H]1C[C@@H]2c3cc(NC(=O)c4ccc5c(c4)OCO5)ccc3O[C@@H]2[C@@H](CO)O1 | 1.06 ± 0.029
13 | C/C=C/c1ccc([C@H]2[C@H]3CNC[C@@H]2N3Cc2ccc(OC)cc2)cc1 | 1.05 ± 0.019
14 | CCCNC(=O)C[C@H]1CC[C@H]2[C@H](COc3ccc(NC(=O)CC)cc3C(=O)N2C)O1 | 1.11 ± 0.06
15 | O=C1NCCCOCc2cn(nn2)CC[C@@H]1Cc1ccc(-c2ccccc2)cc1 | 1.01 ± 0.036
16 | O=C(Cc1ccccn1)N1CC(=O)N2[C@H](CO)[C@H](c3ccc(C#CCC4CCCC4)cc3)[C@H]2C1 | 0.911 ± 0.098
17 | CCCC(=O)Nc1ccc2c(c1)OC[C@H](C)N(S(=O)(=O)c1cn(C)cn1)C[C@@H](C)[C@H](OC)CN(C)C2=O | 1.07 ± 0.059
18 | C[C@H](CO)N1C[C@H](C)[C@@H](CN(C)Cc2ccc(C(=O)Nc3ccccc3N)cc2)Oc2ccc(NC(=O)Cn3cnnn3)cc2C1=O | 0.976 ± 0.11
19 | Cc1cccc(S(=O)(=O)N2CC[C@@H]3[C@H](CO)N(C)c4ccc(Br)cc4[C@@H]32)c1 | 1.09 ± 0.051
20 | CCCNC(=O)Nc1ccc2c(c1)OC[C@H](C)N(Cc1cncnc1)C[C@@H](C)[C@H](OC)CN(C)C2=O | 0.989 ± 0.014
21 | Cc1cccc(S(=O)(=O)N2CC[C@@H]3[C@@H](CO)Nc4ccc(-c5ccccc5F)cc4[C@@H]32)c1 | 1.18 ± 0.029
22 | C[C@H](CO)N1C[C@H](C)[C@@H](CN(C)S(=O)(=O)c2cccc(C#N)c2)OCc2cn(nn2)CCCC1=O | 1.03 ± 0.11
23 | Cc1noc(C)c1NC(=O)Nc1ccc2c(c1)C(=O)N([C@H](C)CO)C[C@H](C)[C@@H](CN(C)Cc1ccc3c(c1)OCO3)OCCCC[C@@H](C)O2 | 1.12 ± 0.13
24 | O=C(NCc1ccccc1F)[C@@H]1[C@@H](CO)[C@@H]2Cn3c(cccc3=O)[C@@H]2N1CC1CCCC1 | 1.09 ± 0.057

Row | Compound | viability index
25 | CNC[C@@H]1Oc2c(NS(=O)(=O)c3ccc(Cl)cc3)cccc2C(=O)N([C@H](C)CO)C[C@@H]1C | 1.091 ± 0.0069
26 | O=C(NCCc1ccccc1)[C@@H]1[C@@H](CO)[C@@H]2Cn3c(ccc(-c4cccc(F)c4)c3=O)[C@H]1N2 | 0.936 ± 0.059
27 | COc1ccc2c3c([C@H](CO)N(C[C@]33CCN(C)CC3)S(=O)(=O)c3ccc(C)cc3)n(C)c2c1 | 1.06 ± 0.1
28 | CCNC(=O)[C@@H]1[C@@H](CO)[C@@H]2Cn3c(cccc3=O)[C@H]1N2C(=O)Nc1cc(F)ccc1F | 1.01 ± 0.046
29 | O=C(C[C@@H]1CC[C@H]2[C@@H](COC[C@H](O)CN2CC2CCOCC2)O1)NCC1CCCCC1 | 1.2 ± 0.091
30 | Cc1ccccc1S(=O)(=O)N1CCCCN2[C@H](CO)[C@@H](c3ccc(C#CCN(C)C)cc3)[C@@H]2C1 | 1.01 ± 0.087
31 | Cc1nc(N2[C@H](C#N)[C@H](c3ccccc3)[C@H]2CO)sc1C | 1.09 ± 0.08
32 | COc1ccccc1S(=O)(=O)N1CC[C@@H]2[C@@H](CO)Nc3ccc(-c4ccc(C#N)cc4)cc3[C@@H]21 | 1.1 ± 0.028
33 | O=C1CNC[C@@H]2[C@H](c3ccc(C#Cc4cccnc4)cc3)[C@@H](CO)N12 | 0.97 ± 0.05
34 | O=C(C1CCOCC1)N1[C@@H](CO)[C@H](c2ccccc2)C12CN(CCC(F)(F)F)C2 | 1.12 ± 0.015
35 | N#Cc1cccc(-c2ccc([C@@H]3[C@H]4CNC[C@@H]3N4S(=O)(=O)c3ccc(F)cc3)cc2)c1 | 1.06 ± 0.029
36 | CCS(=O)(=O)Nc1ccc2c(c1)C(=O)N(C)[C@H]1CC[C@@H](CC(=O)NCc3ccc(OC)cc3)O[C@@H]1CO2 | 0.902 ± 0.11
37 | N#C[C@H]1[C@H](c2ccc(-c3cncnc3)cc2)[C@@H](CO)N1C(=O)Cc1ccccc1 | 1.06 ± 0.1
38 | C[C@@H]1CN([C@@H](C)CO)C(=O)CCCn2nncc2CO[C@H]1CN(C)C(=O)Nc1cccc(Oc2ccccn2)c1 | 1.05 ± 0.05
39 | Cc1noc(C)c1NC(=O)N(C)C[C@H]1OCc2ccccc2-c2c(n(C)c3ccccc23)C(=O)N([C@@H](C)CO)C[C@H]1C | 0.994 ± 0.079
40 | CS(=O)(=O)N1[C@H](CO)[C@@H](c2ccccc2)C12CN(C(=O)c1ccccc1F)C2 | 1.11 ± 0.018
41 | O=C(C[C@@H]1C=C[C@@H](NC(=O)c2cnccn2)[C@@H](CO)O1)NCc1ccccc1F | 1.11 ± 0.054
42 | C[C@@H]1CC(=O)NCC/C=C\C[C@H](c2cccc(Cl)c2)NC1=O | 1.057 ± 0.0052
43 | CC(=O)N1CCCCN2[C@H](CO)[C@H](c3ccc(-c4ccccc4)cc3)[C@@H]2C1 | 0.9842 ± 0.0065
44 | O=C(NCC[C@H]1CC[C@@H](NC(=O)C2CCOCC2)[C@@H](CO)O1)c1cc(Cl)cc(Cl)c1 | 0.97 ± 0.087
45 | COc1cccc(S(=O)(=O)N2C[C@@H](O)COC[C@@H]3O[C@@H](CC(=O)NCCCN4CCOCC4)CC[C@H]32)c1 | 1.06 ± 0.094
46 | C[C@H]1CN([C@@H](C)CO)C(=O)Cc2cc(NS(=O)(=O)c3cccs3)ccc2O[C@@H]1CN(C)CC1CCCCC1 | 1.07 ± 0.1
47 | COc1ccc2c3c([C@@H](CO)N(C[C@]33CN(Cc4ccccc4OC)C3)C(=O)C3CC3)n(C)c2c1 | 1.07 ± 0.02
48 | CN1CCN(C(=O)c2cc3c(c(-c4cccc(-c5cccnc5)c4)n2)[C@H](CCO)N(C(=O)CC2CC2)C3)CC1 | 1.013 ± 0.0071

Row | Compound | viability index
49 | CS(=O)(=O)N1C[C@@H](O)COC[C@H]2O[C@H](CC(=O)NCc3ccccc3)CC[C@@H]21 | 0.998 ± 0.044
50 | C[C@@H]1CN([C@@H](C)CO)C(=O)c2cccc(N(C)C)c2O[C@H]1CN(C)Cc1ccncc1 | 1.05 ± 0.085
51 | O=C(C[C@@H]1C[C@@H]2c3cc(NS(=O)(=O)c4ccc(F)cc4)ccc3O[C@@H]2[C@H](CO)O1)NCCN1CCCCC1 | 1.01 ± 0.056
52 | COc1ccc(-c2ccc([C@@H]3[C@@H](CO)N4C(=O)CN(Cc5ccccc5)C[C@H]34)cc2)cc1 | 1.045 ± 0.0052
53 | C[C@@H]1CN([C@@H](C)CO)C(=O)c2cc(NS(=O)(=O)c3ccc(Cl)cc3)ccc2O[C@@H](C)CCCCO[C@H]1CN(C)Cc1ccncc1 | 1.06 ± 0.045
54 | O=C(NCc1ccccc1F)[C@H]1[C@H](CO)[C@H]2Cn3c(cccc3=O)[C@H]2N1CC1CCCC1 | 1.01 ± 0.025
55 | CN(Cc1ccccc1F)C[C@H]1[C@@H](c2ccccc2)[C@@H](CO)N1S(C)(=O)=O | 1 ± 0.032
56 | CO[C@H](CN(C)Cc1cc(F)ccc1F)[C@@H](C)CN([C@@H](C)CO)S(=O)(=O)c1ccc(C)cc1 | 1.09 ± 0.043
57 | Cc1noc(C)c1S(=O)(=O)N(C)C[C@@H]1OCc2ccccc2-c2ccccc2C(=O)N([C@@H](C)CO)C[C@@H]1C | 1.09 ± 0.011
58 | O=C(C[C@H]1CC[C@@H]2[C@H](COC[C@H](O)CN2Cc2nccs2)O1)N1CCC(Cc2ccccc2)CC1 | 1.06 ± 0.12
59 | COc1cccc(S(=O)(=O)N[C@@H]2CC[C@H](CC(=O)NC3Cc4ccccc4C3)O[C@H]2CO)c1 | 0.907 ± 0.18
60 | CCC(=O)N1[C@@H](CO)[C@@H](c2ccccc2)C12CN(C(=O)Nc1ccccc1F)C2 | 0.951 ± 0.021
61 | CCC(=O)N[C@@H]1CC[C@@H](CC(=O)NCc2ccccc2F)O[C@H]1CO | 1.11 ± 0.089
62 | CS(=O)(=O)N1Cc2cc(C(=O)NCC3CC3)nc(-c3cccc(-c4cncnc4)c3)c2[C@@H]1CCO | 1.03 ± 0.018
63 | C[C@@H]1CN([C@H](C)CO)C(=O)c2cc(NS(C)(=O)=O)ccc2O[C@@H](C)CCCCO[C@@H]1CN(C)CC1CCCCC1 | 1.12 ± 0.13
64 | CC(C)[C@@H]1C(=O)NCC/C=C/C[C@H](C)Oc2ccccc2C(=O)N1C.CC(C)[C@@H]1C(=O)NCC/C=C\C[C@H](C)Oc2ccccc2C(=O)N1C | 0.942 ± 0.026
65 | CO[C@H]1CC[C@H]2CCOc3c(C#N)cccc3C(=O)N(C)CCCC(=O)N(C)C[C@@H]1O2 | 1.02 ± 0.088
66 | COc1ccc2c3c([nH]c2c1)[C@H](CO)N(C[C@]31CCN(Cc2nccs2)CC1)C(=O)C1CCOCC1 | 1.01 ± 0.017
67 | CN1C(=O)c2cc(NC(=O)c3ccc(F)c(F)c3)ccc2OC[C@@H]2O[C@H](CC(=O)N3CCCCC3)CC[C@H]21 | 0.986 ± 0.14
68 | CCCNC(=O)N1C[C@H](C)[C@H](OC)CN(C)C(=O)c2ccc(NC(=O)CC)cc2OC[C@@H]1C | 1.04 ± 0.051
69 | CO[C@@H]1CN(C)C(=O)c2cc(NC(=O)c3cccc(F)c3)ccc2OC[C@@H](C)N(C)C[C@H]1C | 1 ± 0.051
70 | COc1ccc(C(=O)N2C[C@H]3[C@@H](c4ccccc42)[C@@H](CO)N3Cc2ccccc2Cl)cc1 | 0.984 ± 0.092
71 | CS(=O)(=O)N1CC(=O)N2[C@@H](CO)[C@H](c3ccc(C#CCC4CCCC4)cc3)[C@@H]2C1 | 1.01 ± 0.033
